# Measured values: PubChem BioAssay AID463173 (ICCB-Longwood Screening Facility, Harvard Medical School, 2010)
# Out of some 52,000 compounds screened, about 1,700 (3.3%) were called active. Rule as the data show it: active = survival mostly below about 52% (no sharp cut-off); inactive = mostly above about 56%. The list shows a part of the results.
# System: Wild type
# Test: growth inhibition of S. aureus wild type versus tarO mutant, primary screen, teichoic acid synthesis inhibitors, RN4220, OD600 (AID 463173)
# Conditions: S. aureus RN4220 wild type/DeltatarO growth, OD600, 18 h, active compounds read low, screened at 18.75 µg/mL (by protocol)
row,Compound,survival
1,CC(=O)Nc1nonc1-c1nnc(SCC(=O)Nc2cccc(C)c2C)n1-c1ccccc1,inactive: 86%
2,COc1ccc(Cn2cc(C(=O)c3ccc(F)cc3)c(=O)c3cc4c(cc32)OCCO4)cc1,inactive: 83%
3,Cc1nn(C)c(C)c1CCNC(=O)Nc1cccc(Cl)c1C,inactive: 63%
4,CCCCNc1ccc(-c2nc(-c3ccncc3)no2)cc1[N+](=O)[O-],inactive: 68%
5,CCCCc1nn2c(=O)cc(COC(=O)c3ccco3)nc2s1,inactive: 73%
6,COc1ccc(-c2nc(CCNC(=O)c3c(F)cccc3Cl)cs2)cc1,inactive: 121%
7,CC1CCN(C(=O)Cn2cc(SCC(=O)Nc3ccccc3C(F)(F)F)c3ccccc32)CC1,inactive: 105%
8,CCN(CC)C(=O)CSc1nc(C)cc(C)n1,inactive: 118%
9,Cc1cccc(NC(=O)C2CCCN(S(=O)(=O)c3c(C)n[nH]c3C)C2)c1 (centres undefined),inactive: 140%
10,CCC(C(=O)Nc1ccccc1)n1nc(-c2cc(C)ccc2C)ccc1=O (centres undefined),inactive: 74%
11,Cc1ccccc1Nc1c(-c2cccnc2)nc2cccc(C)n12,inactive: 90%
12,CCOc1ccc(-n2c(=O)c3c(C)c(C)sc3n(CC(=O)Nc3ccc(CC)cc3)c2=O)cc1,inactive: 71%
13,CCN1C(=O)N(c2ccc(C(C)=O)cc2)S(=O)(=O)c2ccccc21,inactive: 51%
14,CSc1ccc(CCNC(=O)Cn2ncn3c(cc4ccccc43)c2=O)cc1,inactive: 77%
15,Cc1ccc(CN2C(=O)C(=O)c3cc(Br)cc(C)c32)cc1,inactive: 40%
16,CCN(C(=O)c1cc2c(=O)n(CC)c3ccccc3c2s1)c1cccc(C(F)(F)F)c1,inactive: 89%
17,Cn1nc(-c2ccc(OCC(=O)Nc3ccc(Cl)cc3)cc2)c2ccccc2c1=O,inactive: 111%
18,CC1C(=NO)C(C)C(c2ccccc2)NC1c1ccccc1 (centres undefined),inactive: 113%
19,Cc1cccc(-c2cc3nc(C)cc(NCCCn4ccnc4)n3n2)c1,inactive: 115%
20,O=C1NC2(CCCCC2)C(=O)N1c1ccc(Cl)cc1,inactive: 120%
21,COc1ccc(Br)cc1CNC(=O)c1cnc2sc(N3CCCCCC3)nn2c1=O,inactive: 78%
22,Cc1ccc(-c2nc(CCNC(=O)C(=O)Nc3ccc(C)c(Cl)c3)cs2)cc1,inactive: 47%
23,CCCOc1ccc(CNC(=O)CCCN2C(=O)CSc3c2c(C)nn3-c2ccccc2)cc1,inactive: 82%

row,Compound,survival
1,COc1ccccc1C(=O)Nc1ccccc1C(=O)OCc1cc(=O)n2ccsc2n1,active: -6%
2,CCOC(=O)c1sc(NC(=O)c2nc3nc(C)cc(C(F)F)n3n2)c(C(=O)OC(C)C)c1C,inactive: 68%
3,COc1ccc(C2(N3CCN(c4cc(C)ccc4C)CC3)C(=O)c3ccccc3C2=O)cc1,inactive: 84%
4,CCOc1ccccc1NC(=O)CSc1nc2cc(OC)c(OC)cc2c2nc(CCn3c(C)nc4ccccc43)nn12,inactive: 77%
5,CCCN(CCC)C(=O)Cn1c(SCc2cccc(F)c2)nc2cccnc21,inactive: 65%
6,N#Cc1cccc(NC(=O)C2CCN(S(=O)(=O)c3ccc4c(c3)CCCN4C(=O)C3CCC3)CC2)c1,inactive: 68%
7,Cc1ccc2oc(C(=O)NCC(c3ccc(Cl)cc3)N3CCOCC3)c(C)c2c1 (centres undefined),inactive: 61%
8,Cc1nc(-c2ccc(F)cc2)sc1CCNC(=O)c1ccccc1C(F)(F)F,inactive: 113%
9,CCc1ccc(C2C(C#N)=C(N)OC(C)=C2C(=O)OC)cc1 (centres undefined),inactive: 108%
10,Cc1ccc(CNC(=O)c2cc3c(=O)n4cccc(C)c4nc3s2)cc1,inactive: 86%
11,Cc1ccc(CNC(=O)CN2C(=O)C3CCCCN3c3ccc(C(=O)N(C)C)cc32)cc1 (centres undefined),inactive: 78%
12,COc1ccccc1NC(=O)CN1C(=O)C(C)(C)c2ccccc21,inactive: 87%
13,CN(C)c1cc(N)c2ccccc2n1,inactive: 113%
14,Cc1ccc(S(N)(=O)=O)cc1NC(=O)c1c(-c2c(Cl)cccc2Cl)noc1C,inactive: 75%
15,Cc1cccc(CSc2ncc(Cl)c(C(=O)Nc3nnc(C)s3)n2)c1,inactive: 75%
16,CC1=C(C(=O)Nc2ccccc2C)C(c2sccc2C)n2ncnc2N1 (centres undefined),inactive: 69%
17,Cc1ccccc1CSc1nc2c([nH]c3ccccc32)c(=O)n1-c1ccccc1,inactive: 133%
18,CCN(CC)CCNC(=O)CN1C(=O)CSc2ccc(S(=O)(=O)N3CCOCC3)cc21,inactive: 73%
19,Cc1ccc(/C=C/c2onc(C)c2S(=O)(=O)N2CCC(C(=O)Nc3cccc(C#N)c3)CC2)cc1,inactive: 70%
20,CCOC(=O)COc1ccc(CC)cc1C(=O)c1ccn2nc(-c3ccc(C)cc3)cc2n1,inactive: 105%
21,CCOc1ccc(-c2cc(NC(=O)Nc3ccccc3Cl)c(C(=O)OC)s2)cc1,inactive: 50%
22,O=C(NCCCN1CCN(c2ccccc2F)CC1)c1ccc2nc(Cc3ccccc3)oc2c1,inactive: 64%
23,Cc1ccc(-c2nnc(Nc3ccc(F)cc3)c3ccccc23)cc1S(=O)(=O)NC(C)C,inactive: 81%

row,Compound,survival
1,Cc1ccc(C(=O)N2CCN(c3ccccc3)CC2)cc1NC(=O)c1nsc2ccccc12,inactive: 73%
2,N#Cc1c(C(F)(F)F)cc(-c2cccs2)nc1SCC(=O)Nc1cccc(Br)c1,inactive: 81%
3,CCc1nnc2c(NCc3ccccc3)nc3ccccc3n12,inactive: 94%
4,CCN(CC)S(=O)(=O)c1ccc2c(c1)c(=O)c(C(=O)N1CCN(c3ccc(OC)cc3)CC1)cn2C,inactive: 78%
5,CCc1ccccc1NC(=O)c1nc2nc(C)cc(C(F)F)n2n1,inactive: 74%
6,CCCN(CCC)CCCNC(=O)Cn1ncn2c(cc3sc(CC)cc32)c1=O,inactive: 80%
7,Cc1ccc(CNC(=O)CN2N=C(c3ccc(C)cc3)CCC2=O)cc1,inactive: 80%
8,CC(C)c1ccc(NC(=O)C2CCCN(S(=O)(=O)c3ccc4[nH]c(=O)oc4c3)C2)cc1 (centres undefined),inactive: 51%
9,Cc1cccc(-c2nnc(SCC(=O)Nc3ccc(C)c(C)c3)o2)c1,inactive: 87%
10,Cc1nnc(C)c2c(C)n(-c3ccc4c(c3)OCO4)c(C)c12,inactive: 111%
11,Cn1c(-c2cccc(Br)c2)cnc1NCc1cccc(F)c1,inactive: 27%
12,CCCS(=O)(=O)c1c(S(=O)(=O)CCC)c2cc(C(C)(C)C)ccn2c1C(=O)c1ccc(C)cc1,inactive: 78%
13,O=C(/C=C/c1ccco1)OCCN1CCOCC1,inactive: 92%
14,COc1cc(SC)ccc1C(=O)N1CCn2c3c(c4cc(C)ccc42)CCCC31 (centres undefined),inactive: 85%
15,COc1ccc(Nc2nnc(-c3cc4cc(Cl)ccc4oc3=O)s2)cc1,inactive: 73%
16,COc1cccc(CN2C(=O)c3ccccc3C2C(=O)NCCc2ccccc2)c1 (centres undefined),inactive: 90%
17,CCC(C)NC(=O)c1ccc(Cn2c(=O)c3cccn3c3cccnc32)cc1 (centres undefined),inactive: 118%
18,Cc1ccc(C(=O)Nc2c(C)nc3ccccn3c2=O)cc1,inactive: 88%
19,Cc1ccc(C)c(N2CCN(C(=O)CCc3c(C)nn(-c4ccc(N5CCCC5)nn4)c3C)CC2)c1,inactive: 77%
20,Cc1ccc(N2C(=O)SC(N(C)c3ccccc3)C2=O)cc1 (centres undefined),inactive: 112%
21,COc1ccccc1CNC(=O)CSc1nc2nc(C)c(Cc3ccccc3C)c(C)n2n1,inactive: 135%
22,O=C(NCc1ccc(Cl)cc1)C1CCN(C(=O)c2cnn(-c3ccccc3)c2-n2cccc2)CC1,inactive: 87%
23,CCOc1ccc(CNC(=O)Cn2nc(N3CCN(c4ccccc4)CC3)ccc2=O)cc1,inactive: 81%

row,Compound,survival
1,Oc1c(C(c2cccc(Br)c2)N2CCCC2)sc2nc(-c3ccco3)nn12 (centres undefined),inactive: 77%
2,O=C(CCCCCn1c(=O)[nH]c2ccsc2c1=O)NCc1ccccc1,inactive: 86%
3,CCn1c(SCc2ccccc2)nnc1C1CCCCC1,inactive: 106%
4,Cc1cccc(N2C(=O)C(CC(=O)Nc3ccccc3)N(C3CCCCC3)C2=O)c1 (centres undefined),inactive: 82%
5,COc1ccccc1NC(=O)C1=C(C)NC2=C(C(=O)CCC2)C1c1cc2c(cc1Br)OCO2 (centres undefined),inactive: 103%
6,COc1cccc(C(=O)Nc2nc3nc(C)c(Cc4ccccc4)c(=O)n3[nH]2)c1,inactive: 105%
7,CCOC(=O)c1c(C)[nH]c(C)c1S(=O)(=O)N(C)CC(=O)N1CCN(c2cccc(C)c2C)CC1,inactive: 72%
8,COC(=O)c1ccc(NC(=O)CC2C(=O)N(c3cccc(C)c3)C(=O)N2Cc2ccco2)cc1 (centres undefined),inactive: 81%
9,CCOC(=O)c1c(C)oc2nc(C)nc(NCCCN3CCN(c4ccccc4OC)CC3)c12,inactive: 81%
10,Cc1nn(C)c2c1c(-c1ccccc1)cc(=O)n2Cc1ccc(Br)cc1F,inactive: 78%
11,COc1ccccc1C(=O)Nc1ccccc1C(=O)OCc1cc(=O)n2c(C)csc2n1,inactive: 131%
12,O=C(c1cc2ccccc2oc1=O)N1CCCC1,inactive: 99%
13,Cc1ccc(OCC(=O)N(Cc2ccc(N(C)C)cc2)CC2CCCO2)cc1C (centres undefined),inactive: 82%
14,CCCCOc1ccc(NC(=O)c2cc3c(n(-c4ccc(Cl)cc4)c2=O)CCCC3=O)cc1,inactive: 148%
15,Cc1ccc(CNC(=O)CCCn2c(=O)c3ccccc3n(Cc3ccccc3Cl)c2=O)cc1,inactive: 126%
16,O=C(c1cccc([N+](=O)[O-])c1)N1c2nc(-c3ccco3)nn2C2(CCCCC2)[C@@H]2CCCC[C@@H]21,inactive: 62%
17,COc1ccc(-c2cc(C(F)(F)F)nc(SCC(=O)N3CCCCC3)n2)cc1,inactive: 97%
18,O=C(Cn1c(=O)n(CCCS(=O)(=O)C2CCCCC2)c(=O)c2ccccc21)Nc1ccccc1F,inactive: 70%
19,Cc1cc(C(=O)Nc2cccc(C(F)(F)F)c2)c2c(C)nn(-c3cccc(F)c3)c2n1,active: -1%
20,Cc1nn2c3c(cnc2c1-c1ccc(F)cc1)C(=O)CC(c1ccccc1)C3 (centres undefined),inactive: 71%
